Source: publication PMC7819943, “Rice protein-binding microarrays: a tool to detect cis-acting elements near promoter regions in rice”
The other results are listed elsewhere or left out.

Each sequence was assayed against T1, OsWOX13 (Oryza sativa, UniProt Q5QMM3 1-267) (assay: protein-binding microarray (RPBM); PBS, 2% BSA, 51.3 ng/ul salmon testes DNA, 50 uM zinc acetate, 200 nM TF, 25 C, 1 h; high values mean tight binding). Conditions: protein: recombinant; tags: N-terminal polyhistidine and DsRed monomer fusion (pET32a); label: CyDye5-dUTP incorporated in the synthesized complementary strand; 3' TTTTT single-stranded linker to array surface; dsDNA, one strand shown.
T1 sequence: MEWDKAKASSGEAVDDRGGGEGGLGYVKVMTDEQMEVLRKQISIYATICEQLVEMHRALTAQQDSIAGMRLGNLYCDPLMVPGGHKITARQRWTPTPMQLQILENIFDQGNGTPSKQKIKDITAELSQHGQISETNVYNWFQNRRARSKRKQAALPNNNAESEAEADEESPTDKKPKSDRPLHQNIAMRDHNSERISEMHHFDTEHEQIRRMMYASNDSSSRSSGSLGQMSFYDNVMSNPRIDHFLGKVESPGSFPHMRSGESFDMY
In short: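 The binding signal is fluorescence intensity per feature, in arbitrary units, read on an Axon 4000B scanner. Polyhistidine- and DsRed-tagged transcription factors (N-terminal fusions) from E. coli BL21-CodonPlus were purified on Ni–NTA and applied at 200 nM for 1 h at 25 °C to a double-stranded, BSA-blocked custom Agilent array in buffer with 50 µM zinc acetate.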

Compared with “TAATAATTGGTCGTGAAATTCTCAAAAGTTTTGCTCATAGCGGAGTCACCTAGTGCAG”, “ATTAATTTCGCTTGCTAACACGAGTTTAATCTGCCAATTTCGGAGTCACCTAGTGCAG” is lower in binding signal: 11600 fluorescence intensity (a.u.) for the first, 4020 fluorescence intensity (a.u.) for the second.

Compared with “GTACCACTTGATTTGTGTCTAGTGTAAATCGCATTAGCCACGGAGTCACCTAGTGCAG”, “CTAATTGGTTGGGTGGTTTTAGCTAGGGGATGCCTAAACGCGGAGTCACCTAGTGCAG” is higher in binding signal: 14700 fluorescence intensity (a.u.) for the first, 22600 fluorescence intensity (a.u.) for the second.

Compared with “GTAACAGAAACAGATTGGTACGACTACGACGCCCTGTACCCGGAGTCACCTAGTGCAG”, “ATATTGAATGATTAGGGAATTTAGGCTATATATTGAAGCCCGGAGTCACCTAGTGCAG” is higher in binding signal: 33400 fluorescence intensity (a.u.) for the first, 40200 fluorescence intensity (a.u.) for the second.

Going from “TGACTAAATTGCCCCTGAAGCATTTTCATCTCTGCTCCTCCGGAGTCACCTAGTGCAG” to “CGTGATCGATCGATCGGTTGATTGATTGCTCAGGGCCCAACGGAGTCACCTAGTGCAG”, the binding signal rises from 8630 fluorescence intensity (a.u.) to 42400 fluorescence intensity (a.u.).

Compared with “AGATATTGATGATTTGTTGTTGGGCTCGGGCGCTCAGCCACGGAGTCACCTAGTGCAG”, “ATGATTGAATAGAAAAGAGAGTGAGAGAAGAGAGTTTAATCGGAGTCACCTAGTGCAG” is lower in binding signal: 20200 fluorescence intensity (a.u.) for the first, 14700 fluorescence intensity (a.u.) for the second.

First: AGGTTGACAGGAGAGAGGAGGCGGCGCGGGCGAGGGAGCTCGGAGTCACCTAGTGCAG
Second: ATATAATTATGTTCCAAGTGGCATTACGATGGTTCTTTTCCGGAGTCACCTAGTGCAG
The binding signal of the first is lower: 7270 fluorescence intensity (a.u.) for the first, 16700 fluorescence intensity (a.u.) for the second.

First: AACCCCGCAGCCAATCAGAATCAGCTTTCCTCCTTGCCCCCGGAGTCACCTAGTGCAG
Second: GGTTATGGATAATCAATTTACGTTGTGCTCAGCTAACAATCGGAGTCACCTAGTGCAG
The binding signal of the first is lower: 3300 fluorescence intensity (a.u.) for the first, 6820 fluorescence intensity (a.u.) for the second.

First: AGTTTCATTAAATTTAATATTAAACATATTTTGATAATATCGGAGTCACCTAGTGCAG
Second: TCTATCCCAATTAATCATACCCTAAAATTTGTACGTCTTACGGAGTCACCTAGTGCAG
The binding signal of the first is higher: 5680 fluorescence intensity (a.u.) for the first, 4670 fluorescence intensity (a.u.) for the second.

Compared with “AAAATTGAATTGTCAAAGTCGGATGAAACCATGTGTTCCCCGGAGTCACCTAGTGCAG”, “GATGTTTTGACTTTGATTAAAGTCAAACTAAGTTTGGCTACGGAGTCACCTAGTGCAG” is lower in binding signal: 26900 fluorescence intensity (a.u.) for the first, 3970 fluorescence intensity (a.u.) for the second.

Going from “CTTGGACGATGCTGGTTAATTAATTAGCTAGAGGTAGTAGCGGAGTCACCTAGTGCAG” to “ACCAGAATATTTGACTGGTAATTTCTATGTAATATGTTAGCGGAGTCACCTAGTGCAG”, the binding signal falls from 11000 fluorescence intensity (a.u.) to 10800 fluorescence intensity (a.u.).

Compared with “CCTAACAGCTAATAATAAACAGATAGAAAGATGCTCTGTCCGGAGTCACCTAGTGCAG”, “ATGATAGACTTGAACAGGAAAGGTCAAGCAAGAGCTAATACGGAGTCACCTAGTGCAG” is lower in binding signal: 24000 fluorescence intensity (a.u.) for the first, 5060 fluorescence intensity (a.u.) for the second.

Compared with “TTAATTGCTAAGCTGTTCCGTCCATGGTTCACACTTCACACGGAGTCACCTAGTGCAG”, “TATATATATATATATATATATATATATATATATATGAAAGCGGAGTCACCTAGTGCAG” is higher in binding signal: 10600 fluorescence intensity (a.u.) for the first, 22400 fluorescence intensity (a.u.) for the second.

First: TCTTGCAAATTTAAATTTCAAGTTGAAAATTTTCAAAGTTCGGAGTCACCTAGTGCAG
Second: GCTTTCAATAAAACTTCATTAATTGAGGCTAAAATGTTACCGGAGTCACCTAGTGCAG
The binding signal of the first is higher: 7610 fluorescence intensity (a.u.) for the first, 5100 fluorescence intensity (a.u.) for the second.

First: CTAATCAAAATGTAATTAACTCATTTATATATTACGGAAACGGAGTCACCTAGTGCAG
Second: CCTTGCTTTGTTAATTGCTCGATCTCTTGCAGCTGCGCATCGGAGTCACCTAGTGCAG
The binding signal of the first is higher: 21800 fluorescence intensity (a.u.) for the first, 5380 fluorescence intensity (a.u.) for the second.

Compared with “ACTGATGGAGAGCATCAGAGGAAGCTATGAGCACAATGTCCGGAGTCACCTAGTGCAG”, “TTTAATATTTATAATTAATGTCAAACATCAGATGTGATAGCGGAGTCACCTAGTGCAG” is higher in binding signal: 4000 fluorescence intensity (a.u.) for the first, 12700 fluorescence intensity (a.u.) for the second.

First: GCTTGTATTTTAACTAATTATTCTTGTAGTGGTCGATGATCGGAGTCACCTAGTGCAG
Second: TTAAATTCAGATAATTAGCAAAGATCTGTAGTGGATGCTGCGGAGTCACCTAGTGCAG
The binding signal of the first is lower: 5440 fluorescence intensity (a.u.) for the first, 27100 fluorescence intensity (a.u.) for the second.

Going from “CTATATATTCAGGCCCGTTGATTGAACTTCTCAGCACAGACGGAGTCACCTAGTGCAG” to “CCCAATCTTTTAAATTAGGCCCATTACTATGCAGCCCGTTCGGAGTCACCTAGTGCAG”, the binding signal falls from 18800 fluorescence intensity (a.u.) to 3860 fluorescence intensity (a.u.).

Going from “ATTAATTAGATATTAACAATTATAAAATTGAAAATGAGTACGGAGTCACCTAGTGCAG” to “TCGTGTGTGCCAATCACCGAGCGCGGCAAACAAATTCTGTCGGAGTCACCTAGTGCAG”, the binding signal falls from 24100 fluorescence intensity (a.u.) to 7860 fluorescence intensity (a.u.).

Compared with “GACAAATCTTTAAAGCCTGATTGCGCCATGATTGACAATGCGGAGTCACCTAGTGCAG”, “CCAAAATATATTAATTAGCTCAGGTATGTACCCGCCCAATCGGAGTCACCTAGTGCAG” is lower in binding signal: 40200 fluorescence intensity (a.u.) for the first, 10700 fluorescence intensity (a.u.) for the second.

First: GATAATTGACAAATACAATAATGACAAATAGTTAAATTCCCGGAGTCACCTAGTGCAG
Second: TTTTCTCCTTGATTAGCCAGCTAATCAATCGATTATCCTCCGGAGTCACCTAGTGCAG
The binding signal of the first is higher: 42100 fluorescence intensity (a.u.) for the first, 24800 fluorescence intensity (a.u.) for the second.

First: TCGTTCTAATTTCTTCGAATTCAATTTTAACGTGAAAGCACGGAGTCACCTAGTGCAG
Second: GCAGTATAATCAATCAGCCATTCATGTGTTTTGCAATCATCGGAGTCACCTAGTGCAG
The binding signal of the first is lower: 4710 fluorescence intensity (a.u.) for the first, 14500 fluorescence intensity (a.u.) for the second.
